Test results as given in PubChem BioAssay AID1347165 (National Center for Advancing Translational Sciences (NCATS), 2019).
Screen size: about 220,000 compounds; about 5,700 (2.6%) were called active. The shares of active, inactive and inconclusive entries below differ from those in the screen. Calls follow the shape of the dose curve; as a rule, active = well fitted inhibition curve with a large enough effect; inconclusive = small, poorly fitted or top-dose-only effect; inactive = no such curve, though single readings can be large or run the other way. Potencies beside an inconclusive call are fits to weak or partial responses and may not hold up.

biological target: Lysine-specific demethylase 5B (Homo sapiens) (UniProt Q9UGL1); test: Primary screen for KDM5B Histone Demethylases FDH-coupled qHTS; conditions: FDH-coupled NADH fluorescence (FDH is formaldehyde dehydrogenase); activity change, negative = inhibition: at 57.7 µM (top of the series) unless noted; also: nearly all actives have a fitted effect of over 70% in size; as to activity change, negative = inhibition: 0% is about no effect
Sequence of UniProt Q9UGL1 (Q9UGL1 whole entry, looked up): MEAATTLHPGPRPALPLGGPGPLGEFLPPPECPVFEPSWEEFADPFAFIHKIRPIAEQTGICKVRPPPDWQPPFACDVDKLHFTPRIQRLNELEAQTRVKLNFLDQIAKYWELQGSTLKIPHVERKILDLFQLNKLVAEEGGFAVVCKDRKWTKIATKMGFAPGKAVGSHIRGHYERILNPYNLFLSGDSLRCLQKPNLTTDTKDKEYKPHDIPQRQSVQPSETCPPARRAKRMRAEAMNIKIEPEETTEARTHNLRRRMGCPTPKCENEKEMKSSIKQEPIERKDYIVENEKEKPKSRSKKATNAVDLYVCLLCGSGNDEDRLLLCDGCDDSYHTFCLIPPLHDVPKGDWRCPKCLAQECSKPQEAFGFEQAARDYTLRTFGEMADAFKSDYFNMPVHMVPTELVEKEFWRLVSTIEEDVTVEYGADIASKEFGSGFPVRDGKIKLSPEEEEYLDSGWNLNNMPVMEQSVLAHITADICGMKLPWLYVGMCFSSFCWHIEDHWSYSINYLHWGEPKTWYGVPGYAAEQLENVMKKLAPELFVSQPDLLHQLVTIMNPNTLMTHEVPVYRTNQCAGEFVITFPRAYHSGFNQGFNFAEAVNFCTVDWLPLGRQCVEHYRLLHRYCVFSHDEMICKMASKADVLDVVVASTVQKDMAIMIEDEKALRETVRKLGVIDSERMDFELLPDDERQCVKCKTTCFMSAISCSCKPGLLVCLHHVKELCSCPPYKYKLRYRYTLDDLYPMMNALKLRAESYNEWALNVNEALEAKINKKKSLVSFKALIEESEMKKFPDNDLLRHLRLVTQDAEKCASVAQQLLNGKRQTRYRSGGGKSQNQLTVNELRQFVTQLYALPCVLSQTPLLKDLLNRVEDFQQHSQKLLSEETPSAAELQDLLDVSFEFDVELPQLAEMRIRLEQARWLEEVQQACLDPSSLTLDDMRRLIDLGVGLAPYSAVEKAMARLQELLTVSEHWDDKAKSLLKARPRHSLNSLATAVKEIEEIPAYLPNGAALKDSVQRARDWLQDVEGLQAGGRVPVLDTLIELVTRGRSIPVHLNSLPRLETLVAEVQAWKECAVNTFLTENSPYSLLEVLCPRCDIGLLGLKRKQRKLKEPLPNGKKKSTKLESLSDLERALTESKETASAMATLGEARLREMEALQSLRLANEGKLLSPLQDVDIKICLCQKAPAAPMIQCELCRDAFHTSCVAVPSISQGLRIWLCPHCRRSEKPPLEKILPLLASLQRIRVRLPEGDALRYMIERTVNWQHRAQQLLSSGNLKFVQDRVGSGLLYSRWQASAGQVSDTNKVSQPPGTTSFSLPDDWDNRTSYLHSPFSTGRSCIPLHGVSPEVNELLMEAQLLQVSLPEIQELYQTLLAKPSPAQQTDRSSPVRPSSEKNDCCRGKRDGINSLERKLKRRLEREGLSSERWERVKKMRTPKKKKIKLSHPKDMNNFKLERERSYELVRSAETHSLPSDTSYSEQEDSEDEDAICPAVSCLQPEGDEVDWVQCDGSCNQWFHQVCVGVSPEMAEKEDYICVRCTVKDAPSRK
Procedure, shortened: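 qHTS format, multiple compound concentrations. Buffer 50 mM HEPES pH 7.5/0.01% Tween-20; 200 nM KDM5BΔAP final; 10 min compound preincubation; substrate-mix levels 12.5 µM peptide, 25 µM α-KG, 0.25 mM NAD⁺; 30 min RT; ΔRFU.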
Potency is read from the fitted curve at half-maximal effect; tags tell the direction and shape of the fitted curve.

Compound | Potency | activity change, negative = inhibition
Cn1cc([C@@H](NC(=O)CCc2cn3ccccc3n2)C2CC(O)C2)cn1 (stereo not given in full) | active: 31.6 µM | –
COc1ccc(C)cc1NC(=O)c1ccc2nc(Cc3ccccc3)oc2c1 | inconclusive: 35.5 µM [inhibitor, single point] | –
CCn1c2c(c(=O)n3ncc(C(=O)Nc4ccc(C(=O)OC)cc4)c13)CN(Cc1ccc(OC)cc1)CC2 | inconclusive: 25.1 µM [inhibitor, partial curve, poor fit] | –
COc1ccc(CCNC(=O)c2c(O)nc3c(C)cccn3c2=O)cc1OC | – | inactive: 0.712%
Cc1ccc(CNC(=O)c2c(-c3ccc(Br)cc3)noc2C)o1 | inconclusive: 1.58 µM [inhibitor, full curve, poor fit] | –
O=C(CCCn1c(=O)c2cccn2c2cccnc21)Nc1ccccc1C(F)(F)F | inconclusive: 1.12 µM [inhibitor, full curve, poor fit] | –
COc1cc(-c2nnc(-c3cccc4ccccc34)o2)cc(OC)c1OC | inconclusive: 25.1 µM [inhibitor, partial curve, poor fit] | –
CC(=O)Nc1ccc(NC(=O)c2cnn(-c3ccccc3F)c2C)cc1C | – | inactive: 12%
Cc1oc(-c2nc(C#N)c(NCc3ccccc3)o2)cc1S(=O)(=O)N1CCOCC1 | inconclusive: 25.1 µM [inhibitor, partial curve, poor fit] | –
Cc1ccc(C2Cn3nnc(C(=O)N4CCN(C(=O)c5ccc(N(C)C)cc5)CC4)c3CO2)cc1 (stereo not given) | inconclusive: 39.8 µM [inhibitor, single point] | –
O=C(c1cc(-c2ccc(F)cc2)nc2ccccc12)N1CCCC1c1nc(C2CCOCC2)no1 (stereo not given) | inconclusive: 31.6 µM [inhibitor, partial curve, poor fit] | –
CCOc1ccc(N(CC)C(=O)c2noc3c2COc2ccc(C)cc2-3)cc1 | inconclusive: 1.12 µM [inhibitor, full curve, poor fit] | –
COc1ccccc1C(=O)Nc1c(C(=O)c2ccccc2)oc2ccccc12 | inconclusive: 28.2 µM [inhibitor, partial curve, poor fit] | –
O=c1c(N2CCc3ccccc3C2)csc2ccc(F)cc12 | inconclusive: 28.2 µM [inhibitor, partial curve, poor fit] | –
O=C1NCc2ccc(-c3cc4c(ccn4Cc4cccnc4)c(C4=CCOCC4)n3)cc21 | inconclusive: 35.5 µM [inhibitor, partial curve, poor fit] | –
CCn1cc(C(=O)N2CC(=O)N(CCc3ccccc3)CC(OCc3cccc(OC)c3)C2)cn1 (stereo not given) | – | inactive: 6.47%
O=C(Cn1nc(-c2ccco2)ccc1=O)NC1CCCc2c1[nH]c1ccccc21 (stereo not given) | inconclusive: 17.8 µM [inhibitor, single point] | –
CC(C)OC(=O)CCNC(=O)c1ccc(Cl)cc1Cl | – | inactive: 19.6%
CCOC(=O)Cn1c(=O)n(CC2CCCO2)c2nc(-c3ccccc3Cl)nc(C(N)=O)c21 (stereo not given) | inconclusive: 15.8 µM [inhibitor, single point] | –
CCOC(=O)C(=O)Nc1ccc(C(=O)OCC)cc1 | – | inactive: 15.3%
Cc1cc(C)cc(NC(=O)c2sc3nc[nH]c(=O)c3c2C)c1 | inconclusive: 8.91 µM [inhibitor, partial curve, poor fit] | –
O=C1NCCCCCCN(Cc2ccncc2)[C@@H]2CN(C(=O)c3ccco3)CC[C@@H]12 | inconclusive: 25.1 µM [inhibitor, single point] | –

Compound | Potency | activity change, negative = inhibition
O=C(Nc1ccccc1C(=O)NC1CCCC1)c1cccc(-n2cnnn2)c1 | – | inactive: 1.72%
COc1ccc(NC(=O)N2CCC(Oc3ncccc3C(=O)N3CCCCC3)C2)c(C)c1 (stereo not given) | – | inactive: 15.4%
O=C(NC1CC1)c1ccc2nnc(-c3cccnc3)n2c1 | active: 112 µM | –
Cc1cccc(N2CCN(C(=O)c3cc4c(=O)[nH]c5ccc(C)cc5c4s3)CC2C)c1 (stereo not given) | inconclusive: 1.26 µM [inhibitor, partial curve, poor fit] | –
COc1ccccc1CCNC(=O)Nc1cccc(CN2CCOC2=O)c1 | – | inactive: 20.8%
COc1ccc(CC(=O)N2CCC(Oc3ncccc3C(=O)N3CCCCC3)C2)cc1 (stereo not given) | inconclusive: 22.4 µM [inhibitor, single point] | –
O=C(c1ccn2nccc2c1)N1CCOCC1 | active: 31.6 µM | –
Cc1ccc(-c2cc(N3CCCN(C(=O)Cc4ccccc4)CC3)n[nH]2)cc1C | inconclusive: 14.1 µM [inhibitor, partial curve, poor fit] | –
Cc1ncc2c(c1CNC(=O)c1ccc3cccnc3c1O)CCNC2 | inconclusive: 20 µM [inhibitor, partial curve, poor fit] | –
Cc1occc1C(=O)N1CCC(C2CCN(c3ncccn3)CC2)C1 (stereo not given) | inconclusive: 39.8 µM [inhibitor, single point] | –
CCn1ccc(C(=O)N2CC[C@H]3C(=O)NCCCCCCN(Cc4ccncc4)[C@@H]3C2)n1 | inconclusive: 28.2 µM [inhibitor, partial curve, poor fit] | –
CN(CC(=O)NCc1ccc(F)cc1)C(=O)c1ccc2c(c1)nnn2C | – | inactive: -1.64%
CC1CCN(c2ccc(CNC(=O)C3CCCN(Cc4ccncc4)CCC(=O)NCC3)cc2)CC1 (stereo not given) | inconclusive: 28.2 µM [inhibitor, partial curve, poor fit] | –
CCCCCNc1nc2ccccc2nc1NS(=O)(=O)c1cccc(C)c1 | inconclusive: 1.58 µM [inhibitor, partial curve, poor fit] | –
Cc1c(CCC(=O)NCc2ccc(F)cc2)c(=O)oc2cc(O)ccc12 | inconclusive: 25.1 µM [inhibitor, partial curve, poor fit] | –
COc1ccccc1C(=O)Nc1ccnn1C1CCN(c2cnccn2)CC1 | active: 28.2 µM | –
CC1=C(C(=O)OC(C)(C)C)C(c2ccccc2F)N2C(CC(=O)N3CCCC3)=CSC2=N1 (stereo not given) | inconclusive: 20 µM [inhibitor, single point] | –
CCOC(=O)CNc1nc(-c2ccccc2)c2cc(C)ccc2n1 | inconclusive: 20 µM [inhibitor, partial curve, poor fit] | –
CC(C)(C)c1ccc(C(=O)Nc2nc3nc(-c4ccccc4)cc(=O)n3[nH]2)cc1 | inconclusive: 35.5 µM [inhibitor, single point] | –
C#CC(C)(CC)NC(=O)Cn1nnc(-c2ccc(OCc3ccccc3Cl)cc2)n1 (stereo not given) | – | inactive: -27.4%
Cc1nc(-c2ccncc2)sc1C(=O)O | – | inactive: -11%
COc1ccccc1-c1nc2nccc(-c3ccco3)n2n1 | inconclusive: 12.6 µM [inhibitor, partial curve] | –

Compound | Potency | activity change, negative = inhibition
O=C(Nc1ccc(F)cc1F)Nc1cc(C(=O)NCc2cccc(F)c2)ccc1N1CCOCC1 | inconclusive: 25.1 µM [inhibitor, partial curve, poor fit] | –
COc1cccc(NC(=O)c2ccnc(-c3nnc4ccc(Nc5ccccc5)nn34)c2)c1 | – | inactive: -9.4%
Clc1ccc(-c2noc(CNc3ccc(Br)cc3)n2)cc1 | – | inactive: -0.899%
CCOc1ccc(CN(CCOC)Cc2cc(=O)n3cc(C)ccc3n2)cc1 | inconclusive: 31.6 µM [inhibitor, single point] | –
CN1CCC(NC(=O)c2nc3nc(-c4ccccc4)c(-c4cccc(O)c4)cc3n2C)CC1 | inconclusive: 31.6 µM [inhibitor, partial curve, poor fit] | –
Cc1ccc(-c2nc(C#N)c(N3CCN(c4ccccc4)CC3)o2)cc1 | inconclusive: 31.6 µM [inhibitor, partial curve, poor fit] | –
C=C(C)COc1ccc2c(C)c(CCC(=O)NC3CC3)c(=O)oc2c1 | inconclusive: 20 µM [inhibitor, partial curve, poor fit] | –
O=C(Nc1ccc2c(c1)CN(Cc1ccc(Cl)cc1)C(=O)CO2)c1ccccc1 | – | inactive: -15.7%
CCN(CC)c1ccc(NC(=S)Nc2ccccc2)cc1 | inconclusive: 4.47 µM [inhibitor, full curve, poor fit] | –
CCCNc1nc(-c2ccc(S(=O)(=O)N3CCCCCC3)cc2)cs1 | inconclusive: 25.1 µM [inhibitor, partial curve, poor fit] | –
CCCCc1nc(-c2ccc(-c3ccc(C)cc3)nc2OC)no1 | inconclusive: 2 µM [inhibitor, partial curve, poor fit] | –
CCOc1ccccc1N1CC(c2nc3ccccc3n2CCCOc2ccccc2)CC1=O (stereo not given) | inconclusive: 1.41 µM [inhibitor, full curve, poor fit] | –
CCN1c2cc(C(=O)Nc3ccccc3)ccc2C(=O)N2CCCCC21 (stereo not given) | inconclusive: 25.1 µM [inhibitor, partial curve, poor fit] | –
CN(C)c1ccc(CN2CCc3nc(N4CCN(c5ccccn5)CC4)ncc3C2)cc1 | inconclusive: 35.5 µM [inhibitor, single point] | –
O=C(Nc1ccccc1)C1=NO[C@@H]2CN(c3ccnc(N4CCOCC4)c3)C[C@H]12 | inconclusive: 28.2 µM [inhibitor, partial curve, poor fit] | –
CC1CCCN(C(=O)Cn2ccn3nc(-c4ccc(F)cc4)c(CO)c3c2=O)C1 (stereo not given) | – | inactive: 3.47%
Cc1c(F)cccc1NS(=O)(=O)c1cccs1 | inconclusive: 39.8 µM [inhibitor, single point] | –
Cc1ccccc1CC(=O)Nc1cccc2cccnc12 | – | inactive: -19.2%
O=C(Nn1cnnc1)c1ccc(Cl)c([N+](=O)[O-])c1 | – | inactive: 21.5%
COc1ccc(Nc2ncc(C(=O)N3CCN(c4ccc(OC)cc4)CC3)c3ccccc23)cc1 | inconclusive: 39.8 µM [inhibitor, partial curve, poor fit] | –
COc1ccc(Cl)cc1C(C(=O)O)N1CCCN(c2ncccn2)CC1 (stereo not given) | active: 28.2 µM | –
